Assay results taken from patent US20250340646A1 (ELPIS BIOPHARMACEUTICALS, published 2025).

Each binder was assayed against PD-L1 on PD-L1 aAPC/CHOK1 cells (Promega J1250) (assay: cell-based or functional assay).

NFAT reporter EC50 [nM] | Binder
2.52 | IL-2/anti-PD-L1 Fab EP412/EP325/EP205 (bispecific antibody, human IgG1, lambda, L234A L235A) APASSSTKKTQLQLEHLLLDLQMILNGINNYKNPLLTDMLTRKFYMPKKATELKHLQCLEEELKPLEEVLNLAQSKNFHLRPRDLISNINVIVLELKGSETTFMCEYADETATIVEFLNRWITFSQSIISTLT[letters of human IgG1 Fc with L234A L235A P329G S354C T366W K409A (EU numbers) omitted] heavy: QVQLVQSGAEVKKPGSSVKVSCKASGGTFSSYAISWVRQAPGQGLEWMGGIIPIFGTANYAQKFQGRVTITADESTSTAYMELSSLRSEDTAVYYCARDKWYGSAWRGDYWGQGTLVTVSSASTKGPSVFPLAPSSKSTSGGTAALGCLVKDYFPEPVTVSWNSGALTSGVHTFPAVLQSSGLYSLSSVVTVPSSSLGTQTYICNVNHKPSNTKVDKKVEPKSCDKTHTCPPCPAPEAAGGPSVFLFPPKPKDTLMISRTPEVTCVVVDVSHEDPEVKFNWYVDGVEVHNAKTKPREEQYNSTYRVVSVLTVLHQDWLNGKEYKCKVSNKALGAPIEKTISKAKGQPREPQVCTLPPSRDELTKNQVSLSCAVKGFYPSDIAVEWESNGQPENNYKTTPPVLDSDGSFKLVSKLTVDKSRWQQGNVFSCSVMHEALHNHYTQKSLSLSPGK light: QSVLTQPPSASGTPGQRVTISCSGSYSNIGSNFVNWYQQLPGTAPKLLIHFNNQRPSGVPDRFSGSRSGTSASLAISGLQSEDEADYFCSTWDDSLKGPIFGGGTKLTVLGQPKANPTVTLFPPSSEELQANKATLVCLISDFYPGAVTVAWKADGSPVKAGVETTKPSKQSNNKYAASSYLSLTPEQWKSHRSYSCQVTHEGSTVEKTVAPTECS
2.48 | IL-2/anti-PD-L1 Fab EP415/EP325/EP205 (bispecific antibody, human IgG1, lambda, L234A L235A) APASSSTKKTQLQLEHLLLDLQMILNGINNYKNPLLTDMLTRKFYMPKKATELKHLQCLEEELKPLEEVLNLAQSKNFHLTARDAIDNINVIVQELKGSETTFMCEYADETATIVEFLNRWITFSQSIISTLT[letters of human IgG1 Fc with C220S L234A L235A P329G S354C T366W K409A (EU numbers) omitted] heavy: QVQLVQSGAEVKKPGSSVKVSCKASGGTFSSYAISWVRQAPGQGLEWMGGIIPIFGTANYAQKFQGRVTITADESTSTAYMELSSLRSEDTAVYYCARDKWYGSAWRGDYWGQGTLVTVSSASTKGPSVFPLAPSSKSTSGGTAALGCLVKDYFPEPVTVSWNSGALTSGVHTFPAVLQSSGLYSLSSVVTVPSSSLGTQTYICNVNHKPSNTKVDKKVEPKSCDKTHTCPPCPAPEAAGGPSVFLFPPKPKDTLMISRTPEVTCVVVDVSHEDPEVKFNWYVDGVEVHNAKTKPREEQYNSTYRVVSVLTVLHQDWLNGKEYKCKVSNKALGAPIEKTISKAKGQPREPQVCTLPPSRDELTKNQVSLSCAVKGFYPSDIAVEWESNGQPENNYKTTPPVLDSDGSFKLVSKLTVDKSRWQQGNVFSCSVMHEALHNHYTQKSLSLSPGK light: QSVLTQPPSASGTPGQRVTISCSGSYSNIGSNFVNWYQQLPGTAPKLLIHFNNQRPSGVPDRFSGSRSGTSASLAISGLQSEDEADYFCSTWDDSLKGPIFGGGTKLTVLGQPKANPTVTLFPPSSEELQANKATLVCLISDFYPGAVTVAWKADGSPVKAGVETTKPSKQSNNKYAASSYLSLTPEQWKSHRSYSCQVTHEGSTVEKTVAPTECS
0.362 | anti-PD-L1 Fab/IL-2 fusion EP362/EP365/EP205 (bispecific antibody, human IgG1, lambda, L234A L235A) heavy 1: QVQLVQSGAEVKKPGSSVKVSCKASGGTFSSYAISWVRQAPGQGLEWMGGIIPIFGTANYAQKFQGRVTITADESTSTAYMELSSLRSEDTAVYYCARDKWYGSAWRGDYWGQGTLVTVSSASTKGPSVFPLAPSSKSTSGGTAALGCLVKDYFPEPVTVSWNSGALTSGVHTFPAVLQSSGLYSLSSVVTVPSSSLGTQTYICNVNHKPSNTKVDKKV[letters of human IgG1 Fc with L234A L235A P329G S354C T366W K409A (EU numbers) omitted] heavy 2: QVQLVQSGAEVKKPGSSVKVSCKASGGTFSSYAISWVRQAPGQGLEWMGGIIPIFGTANYAQKFQGRVTITADESTSTAYMELSSLRSEDTAVYYCARDKWYGSAWRGDYWGQGTLVTVSSASTKGPSVFPLAPSSKSTSGGTAALGCLVKDYFPEPVTVSWNSGALTSGVHTFPAVLQSSGLYSLSSVVTVPSSSLGTQTYICNVNHKPSNTKVDKKVEPKSCDKTHTCPPCPAPEAAGGPSVFLFPPKPKDTLMISRTPEVTCVVVDVSHEDPEVKFNWYVDGVEVHNAKTKPREEQYNSTYRVVSVLTVLHQDWLNGKEYKCKVSNKALGAPIEKTISKAKGQPREPQVCTLPPSRDELTKNQVSLSCAVKGFYPSDIAVEWESNGQPENNYKTTPPVLDSDGSFKLVSKLTVDKSRWQQGNVFSCSVMHEALHNHYTQKSLSLSPGKGGGGSGGGGSGGGGSGGGGSAPASSSTKKTQLQLEHLLLDLQMILNGINNYKNPKLTVMLTFKFSMPKKATELKHLQCLEEELKPLEEVLNLAQSKNFHLTPRDAISNIRVIIQELKGSETTFMCEYADETATIVEFLNRWITFSQSIISTLT light: QSVLTQPPSASGTPGQRVTISCSGSYSNIGSNFVNWYQQLPGTAPKLLIHFNNQRPSGVPDRFSGSRSGTSASLAISGLQSEDEADYFCSTWDDSLKGPIFGGGTKLTVLGQPKANPTVTLFPPSSEELQANKATLVCLISDFYPGAVTVAWKADGSPVKAGVETTKPSKQSNNKYAASSYLSLTPEQWKSHRSYSCQVTHEGSTVEKTVAPTECS
1.87 | IL-2/anti-PD-L1 Fab EP418/EP325/EP205 (bispecific antibody, human IgG1, lambda, L234A L235A) APASSSTKKTQLQLEHLLLDLQMILNGINNYKNPLLTDMLTRKFYMPKKATELKHLQCLEEELKPLEEVLNLAQSKNFHLTPRDAIDNIRVIILELKGSETTFMCEYADETATIVEFLNRWITFSQSIISTLT[letters of human IgG1 Fc with C220S L234A L235A P329G S354C T366W K409A (EU numbers) omitted] heavy: QVQLVQSGAEVKKPGSSVKVSCKASGGTFSSYAISWVRQAPGQGLEWMGGIIPIFGTANYAQKFQGRVTITADESTSTAYMELSSLRSEDTAVYYCARDKWYGSAWRGDYWGQGTLVTVSSASTKGPSVFPLAPSSKSTSGGTAALGCLVKDYFPEPVTVSWNSGALTSGVHTFPAVLQSSGLYSLSSVVTVPSSSLGTQTYICNVNHKPSNTKVDKKVEPKSCDKTHTCPPCPAPEAAGGPSVFLFPPKPKDTLMISRTPEVTCVVVDVSHEDPEVKFNWYVDGVEVHNAKTKPREEQYNSTYRVVSVLTVLHQDWLNGKEYKCKVSNKALGAPIEKTISKAKGQPREPQVCTLPPSRDELTKNQVSLSCAVKGFYPSDIAVEWESNGQPENNYKTTPPVLDSDGSFKLVSKLTVDKSRWQQGNVFSCSVMHEALHNHYTQKSLSLSPGK light: QSVLTQPPSASGTPGQRVTISCSGSYSNIGSNFVNWYQQLPGTAPKLLIHFNNQRPSGVPDRFSGSRSGTSASLAISGLQSEDEADYFCSTWDDSLKGPIFGGGTKLTVLGQPKANPTVTLFPPSSEELQANKATLVCLISDFYPGAVTVAWKADGSPVKAGVETTKPSKQSNNKYAASSYLSLTPEQWKSHRSYSCQVTHEGSTVEKTVAPTECS
0.356 | anti-PD-L1 Fab/IL-2 fusion EP362/EP364/EP205 (bispecific antibody, human IgG1, lambda, L234A L235A) heavy 1: QVQLVQSGAEVKKPGSSVKVSCKASGGTFSSYAISWVRQAPGQGLEWMGGIIPIFGTANYAQKFQGRVTITADESTSTAYMELSSLRSEDTAVYYCARDKWYGSAWRGDYWGQGTLVTVSSASTKGPSVFPLAPSSKSTSGGTAALGCLVKDYFPEPVTVSWNSGALTSGVHTFPAVLQSSGLYSLSSVVTVPSSSLGTQTYICNVNHKPSNTKVDKKV[letters of human IgG1 Fc with L234A L235A P329G S354C T366W K409A (EU numbers) omitted] heavy 2: QVQLVQSGAEVKKPGSSVKVSCKASGGTFSSYAISWVRQAPGQGLEWMGGIIPIFGTANYAQKFQGRVTITADESTSTAYMELSSLRSEDTAVYYCARDKWYGSAWRGDYWGQGTLVTVSSASTKGPSVFPLAPSSKSTSGGTAALGCLVKDYFPEPVTVSWNSGALTSGVHTFPAVLQSSGLYSLSSVVTVPSSSLGTQTYICNVNHKPSNTKVDKKVEPKSCDKTHTCPPCPAPEAAGGPSVFLFPPKPKDTLMISRTPEVTCVVVDVSHEDPEVKFNWYVDGVEVHNAKTKPREEQYNSTYRVVSVLTVLHQDWLNGKEYKCKVSNKALGAPIEKTISKAKGQPREPQVCTLPPSRDELTKNQVSLSCAVKGFYPSDIAVEWESNGQPENNYKTTPPVLDSDGSFKLVSKLTVDKSRWQQGNVFSCSVMHEALHNHYTQKSLSLSPGKGGGGSGGGGSGGGGSGGGGSAPASSSTKKTQLQLEHLLLDLQMILNGINNYKNPKLTRMLTFKFYMPKKATELKHLQCLEEELKPLEEVLNLAQSKNFHLTARDAVDNMRVIIQELKGSETTFMCEYADETATIVEFLNRWITFSQSIISTLT light: QSVLTQPPSASGTPGQRVTISCSGSYSNIGSNFVNWYQQLPGTAPKLLIHFNNQRPSGVPDRFSGSRSGTSASLAISGLQSEDEADYFCSTWDDSLKGPIFGGGTKLTVLGQPKANPTVTLFPPSSEELQANKATLVCLISDFYPGAVTVAWKADGSPVKAGVETTKPSKQSNNKYAASSYLSLTPEQWKSHRSYSCQVTHEGSTVEKTVAPTECS
